Measured values taken from PubChem BioAssay AID624417 (National Center for Advancing Translational Sciences (NCATS), 2012).
About 6,400 (1.6%) of roughly 410,000 compounds were called active. The shares of active, inactive and inconclusive entries below differ from those in the screen. Calls come from the whole dose curve; as a rule, active = well fitted inhibition curve with a large enough effect; inconclusive = small, poorly fitted or top-dose-only effect; inactive = no such curve, though single readings can be large or run the other way. Potencies of inconclusive entries are left out as doubtful fits.
Note: nearly all actives have a fitted effect of over 55% in size.
Potency is the fitted concentration of half-maximal effect; tags give direction and shape of the fitted curve.

What follows are compounds tested against Glucagon-like peptide 1 receptor (Homo sapiens) (UniProt P43220) (assay: qHTS of GLP-1 Receptor Inverse Agonists (Inhibition Mode)). Conditions: HEK293 GLP-1R CRE-luciferase, luminescence, 24 h, GLP-1R form is constitutively active; series mostly up to 38.3 µM.
Sequence of UniProt P43220 (P43220 whole entry, looked up): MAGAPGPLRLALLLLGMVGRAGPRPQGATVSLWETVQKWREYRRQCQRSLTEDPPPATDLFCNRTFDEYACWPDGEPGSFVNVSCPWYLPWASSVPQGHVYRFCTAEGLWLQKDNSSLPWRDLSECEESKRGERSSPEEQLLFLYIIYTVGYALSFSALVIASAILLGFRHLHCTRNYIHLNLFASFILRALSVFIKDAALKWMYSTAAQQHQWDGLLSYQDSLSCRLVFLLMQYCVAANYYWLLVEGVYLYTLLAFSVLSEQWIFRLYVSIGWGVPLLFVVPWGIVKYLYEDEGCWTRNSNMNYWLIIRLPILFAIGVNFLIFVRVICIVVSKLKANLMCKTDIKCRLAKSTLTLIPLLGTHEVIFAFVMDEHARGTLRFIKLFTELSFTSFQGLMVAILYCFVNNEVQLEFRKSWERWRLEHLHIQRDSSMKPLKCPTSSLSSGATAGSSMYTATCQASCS
In short: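 Assay principle: reduced luminescence from a cAMP-responsive reporter in HEK293 cells co-expressing a constitutively active GLP-1R. Conditions: 24 hr compound incubation, 37 deg C, 5% CO2.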
For `CCc1ccc(OCC(=O)O/N=C(\N)c2ccncc2)c(Br)c1`, the Potency was “inactive”. In the case of `CCN(CC)CCCN(C(=O)c1ccccc1F)c1nc(-c2ccc(OC)cc2)cs1`, the Potency is reported as inconclusive [inhibitor, partial curve]. In the case of `Oc1c(C(c2ccccc2F)N2CCN(c3ccccc3F)CC2)sc2nc(-c3ccco3)nn12` (configuration not stated), the Potency is reported as “inactive”. With `CNc1nc(C23CC4CC(CC(C4)C2)C3)cs1` the Potency was inconclusive [inhibitor, partial curve, poor fit]. In the case of `CC(C)(C)S(=O)N1Cc2cc(C(=O)NCc3ccc(Oc4ccccc4)cc3)nc(-c3cccc(-c4cc5ccccc5o4)c3)c2[C@@H]1CCO` (some centres not stated), the Potency is reported as inconclusive [inhibitor, partial curve, poor fit]. With `O=C(O)Cc1sc(Nc2ccc(F)cc2)nc1-c1cccs1` the Potency was inconclusive [inhibitor, single point]. In the case of `CCc1nnc(NC(=O)C2Cc3ccccc3CN2S(=O)(=O)c2c(C)c(C)cc(C)c2C)s1` (configuration not stated), the Potency is reported as “inactive”. For `CCn1c(=O)cc(C(=O)OC)sc1=Nc1ccc(F)c(F)c1`, the Potency was inconclusive [inhibitor, single point]. In the case of `CCC(c1ccc(O)cc1)C(CC)c1ccc(O)cc1` (configuration not stated), the Potency is reported as inconclusive [inhibitor, single point]. For `O=[N+]([O-])c1cc2c(cc1CN1CCN(c3ccccc3F)CC1)OCO2`, the Potency was inconclusive [inhibitor, partial curve]. With `CCC(C(=O)Nc1ccc(C(C)C)cc1)c1ccccc1` (configuration not stated) the Potency was inconclusive [inhibitor, partial curve]. With `CC(C)[N+](C)(C)CC#CC(O)(c1ccccc1)c1ccccc1` the Potency was “inactive”. With `CCOc1ccc(CNC(=O)c2cnc3c(C)cccn3c2=O)cc1` the Potency was “inactive”. `O=C(OCc1ccccc1C(F)(F)F)c1ccc(Br)c(S(=O)(=O)N2CCOCC2)c1` was tested, and the Potency was inconclusive [inhibitor, partial curve, poor fit]. In the case of `Cc1cccc(N(C(=O)c2ccco2)C(C(=O)NC2CCCC2)c2ccco2)c1C` (configuration not stated), the Potency is reported as inconclusive [inhibitor, single point]. `CCOC(=O)C1=C(C)N=C2SCCC(=O)N2[C@@H]1/C=C/c1ccccc1` was tested, and the Potency was inconclusive [inhibitor, single point]. For `Cc1nn(CC(O)COc2ccc3c(c2)CCC3)c(C)c1Br` (configuration not stated), the Potency was inconclusive [inhibitor, partial curve, poor fit]. For `COCC1CCCCN1C(=O)c1ccc(OC2CCN(CCc3ccccc3)CC2)cc1` (configuration not stated), the Potency was inconclusive [inhibitor, partial curve, poor fit]. `COc1ccccc1Cn1c(=O)oc2ccc(C)cc21` was tested, and the Potency was inconclusive [inhibitor, partial curve, poor fit]. For `COc1cc([N+](=O)[O-])ccc1NC(=O)COC(=O)CCOc1ccc(C)cc1`, the Potency was inconclusive [inhibitor, partial curve, poor fit]. With `O=C(Cc1cn(Cc2cccc(Cl)c2)c2ccccc12)N1CCCC1` the Potency was inconclusive [inhibitor, partial curve, poor fit]. In the case of `Cn1c(=O)c2c(nc(CN3CCc4ccccc4C3)n2Cc2ccc(F)cc2)n(C)c1=O`, the Potency is reported as inconclusive [inhibitor, single point]. For `CC(C)(C)N(Cc1cc2ccccc2[nH]c1=O)C(=O)c1cccc([N+](=O)[O-])c1`, the Potency was “inactive”. With `Cc1ccc(NC(=O)NC(C)c2c(-n3cccc3)sc(C)c2C)cc1F` (configuration not stated) the Potency was inconclusive [inhibitor, single point]. `Cc1ccc2c(C)c(C(=O)NCC(c3ccc(Cl)cc3)N3CCOCC3)oc2c1` (configuration not stated) was tested, and the Potency was inconclusive [inhibitor, single point]. In the case of `COc1ccc(C(CNC(=O)c2cccc(S(=O)(=O)Nc3ccccc3OC)c2)N2CCCC2)cc1` (configuration not stated), the Potency is reported as inconclusive [inhibitor, single point]. With `CCn1c(O)c(/C=C2\C=NN=C2c2ccc(C)cc2)sc1=S` the Potency was “inactive”. `CCCNC(=O)CCc1cc(C(C)(C)C)c(O)c(C(C)(C)C)c1` was tested, and the Potency was inconclusive [inhibitor, partial curve, poor fit]. In the case of `O=C(Nc1ccccc1)Nc1cccn(Cc2c(F)cccc2Cl)c1=O`, the Potency is reported as inconclusive [inhibitor, partial curve, poor fit]. For `CCC(c1nnnn1-c1ccc2c(c1)OCCO2)N1CCN(Cc2c(F)cccc2Cl)CC1` (configuration not stated), the Potency was inconclusive [inhibitor, partial curve, poor fit]. With `Cc1ccc(-n2c(=O)[nH]c3cc(C(=O)NCCc4ccccc4)ccc3c2=O)cc1` the Potency was “inactive”. `CCOc1ccc(S(=O)(=O)Nc2cccc(Cl)c2)cc1` was tested, and the Potency was inconclusive [inhibitor, single point]. For `COCCN(C(=S)Nc1ccccc1OC)C(C)c1cccs1` (configuration not stated), the Potency was inconclusive [inhibitor, partial curve]. With `N#CCCN(C(=O)CSc1ccc2c(c1)OCCO2)c1ccc(F)cc1` the Potency was inconclusive [inhibitor, partial curve]. For `Cc1ccc(-c2nc(S(=O)(=O)c3ccc(C)cc3)c(SCC(=O)c3ccccc3)o2)cc1`, the Potency was inconclusive [inhibitor, single point]. In the case of `Cc1cc(Nc2ccc3c(c2)OCCO3)c2ccccc2n1`, the Potency is reported as inconclusive [inhibitor, partial curve, poor fit]. With `COc1ccc(NC(=O)Nc2cc(C)cc(C)c2)cn1` the Potency was inconclusive [inhibitor, full curve]. In the case of `CCN(CC)CCCN(C(=O)c1ccco1)c1nc(-c2ccc(Cl)cc2)cs1`, the Potency is reported as inconclusive [inhibitor, partial curve, poor fit]. With `COc1ccccc1N1CCN(Cc2cc(Br)c(O)c3ncccc23)CC1` the Potency was inconclusive [inhibitor, full curve, poor fit]. `Clc1ccc(CSc2nccn2Cc2ccccc2)cc1` was tested, and the Potency was inconclusive [inhibitor, partial curve, poor fit]. In the case of `O=C(OC1CCOC1=O)c1cc(-c2ccc(Br)cc2)nc2ccccc12` (configuration not stated), the Potency is reported as “inactive”. For `O=C(Nc1ccccc1F)c1nc(SCc2ccccc2F)ncc1Cl`, the Potency was “inactive”. `Cc1ccccc1CN1C(=O)c2ccccc2Sc2ccc(C(=O)NCc3ccccc3)cc21` was tested, and the Potency was inconclusive [inhibitor, partial curve, poor fit]. `COc1cccc(CNC(=O)c2ccc3c(c2)N(Cc2ccc(F)cc2Cl)C(=O)c2ccccc2S3)c1` was tested, and the Potency was inconclusive [inhibitor, partial curve, poor fit]. For `Cc1ccc(S(=O)(=O)N2CCC(C(=O)Nc3ccc(S(=O)(=O)N4CCCC4)cc3)CC2)cc1C`, the Potency was inconclusive [inhibitor, partial curve, poor fit]. For `Cc1ccsc1/C=N/NC(=O)c1nnn(-c2nonc2N)c1CN(C)c1ccccc1`, the Potency was active: 11.2 µM. In the case of `CCOC(=O)[C@H]1[C@H]2COc3ccc(C)cc3[C@@H]2N2C(=O)c3cc(Br)ccc3NC(=O)[C@@]12C`, the Potency is reported as inconclusive [inhibitor, partial curve, poor fit]. For `Cc1ccc(C(=O)O/N=C(\N)Cc2ccc([N+](=O)[O-])cc2)c(Cl)c1`, the Potency was inconclusive [inhibitor, partial curve, poor fit]. With `COc1ccc(-n2nc(C(=O)NCC(=O)NC3CCCC(C)C3C)c3ccccc3c2=O)cc1` (configuration not stated) the Potency was inconclusive [inhibitor, partial curve, poor fit]. With `O=C(NCc1nc2ccccc2n1Cc1ccccc1Cl)c1ccccc1` the Potency was inconclusive [inhibitor, single point]. For `Cc1ccc(C(=O)Cc2cc3ccccc3oc2=O)c(C)c1`, the Potency was “inactive”. With `Cc1noc(/C=C/N(C)C)c1S(=O)(=O)N(C)Cc1ccc(F)cc1` the Potency was inconclusive [inhibitor, partial curve, poor fit]. With `O=C(CC1(O)C(=O)Nc2ccc(Br)cc21)c1ccccc1` (configuration not stated) the Potency was “inactive”. For `CC(=O)Nc1cccc(-n2nnc(SCC(=O)N(C)c3ccccc3)n2)c1`, the Potency was inconclusive [inhibitor, single point]. `Oc1ccc(/C=N/NC(=S)Nc2cccnc2)c(O)c1O` was tested, and the Potency was “inactive”. For `O=C(CCn1c(=S)oc2ccccc21)N1CCN(c2ccc(F)cc2)CC1`, the Potency was inconclusive [inhibitor, single point]. With `CCOC(=O)N1CCC(Nc2cc(C)nc3c(-c4ccccc4OC)c(C)nn23)CC1` the Potency was inconclusive [inhibitor, partial curve, poor fit]. In the case of `O=C1CN(C(=O)COc2ccccc2)C(c2ccc(F)cc2)c2cc(Br)ccc2N1` (configuration not stated), the Potency is reported as inconclusive [inhibitor, single point]. For `Cc1ccccc1CCN(C(=O)c1csnn1)C(C(=O)NC1CCCC1)c1ccncc1` (configuration not stated), the Potency was inconclusive [inhibitor, partial curve, poor fit]. For `COC(=O)c1c(NC(=O)CSc2nnnn2-c2ccccc2)sc2c1CCC(C(C)(C)C)C2` (configuration not stated), the Potency was active: 5.62 µM. In the case of `COc1ccc(-n2nnnc2SCC(=O)Nc2nc3c(s2)CCCC3)cc1`, the Potency is reported as inconclusive [inhibitor, full curve, poor fit]. In the case of `O=C(NCc1ccncc1)C(=O)NCC1OCCN1S(=O)(=O)c1ccc(Br)cc1` (configuration not stated), the Potency is reported as inconclusive [inhibitor, partial curve, poor fit].
